# Results as given in PubChem BioAssay AID588855 (National Center for Advancing Translational Sciences (NCATS), 2011).
# The campaign covered roughly 410,000 compounds. About 5,000 (1.2%) were called active. Inconclusive results, whose numbers are uncertain, are shown with a selection of clear calls. Calls follow the shape of the dose curve; as a rule, active = well fitted inhibition curve with a large enough effect; inconclusive = small, poorly fitted or top-dose-only effect; inactive = no such curve, though single readings can be large or run the other way. A potency beside an inconclusive call is a rough fit, not a confirmed value.
# Assay: qHTS for Inhibitors of TGF-b; also: nearly all actives have a fitted effect of over 65% in size
# Settings: HepG2 CAGA-GFP TGF-b/SMAD3 reporter, GFP fluorescence, 18 h, TGF-beta stimulated, 500 pg/mL final; series mostly up to 46.1 µM; activity, negative = inhibition: at the top concentration
# Summary of the method: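 Smad-responsive CAGA-GFP expression was quantified in HEPG2 cells exposed to compounds and 500 pg/mL final TGF-beta for 18 h at 37 degrees C; unstimulated wells defined full inhibition.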
# % is scaled to controls: 0 for no effect and ±100 for the full control effect; potency is read from the fitted curve at half-maximal effect; tags tell the direction and shape of the fitted curve.
SMILES,Potency,"activity, negative = inhibition"
COc1ccc(NC(=O)Cn2c(SCc3c(F)cccc3Cl)nc3ccncc32)cc1OC,"inconclusive: 10 µM [inhibitor, partial curve]",
CN(C)N1C(N)=C(C#N)C(c2cccc3ccccc23)C2=C1CC(c1ccccc1)CC2=O (centres undefined),"inconclusive: 25.1 µM [inhibitor, single point]",
CC(=O)NC(C)c1cc(F)c2cccnc2c1O (centres undefined),"inconclusive: 1.26 µM [inhibitor, full curve, poor fit]",
CC(C)c1ccc(O)c(NC(=S)NC(=O)c2ccc3c(c2)OCO3)c1,active: 14.1 µM,
O=C(NNC(=S)NC(=O)c1ccco1)c1ccc(F)cc1,,inactive: 10.6%
CCCCN(C(=O)Nc1ccc(OCC)cc1)C1CCN(C(C)=O)CC1,"inconclusive: 0.112 µM [inhibitor, full curve, poor fit]",
Cc1nc(SCc2nc3ccc(F)cc3[nH]2)c2oc3ccccc3c2n1,"inconclusive: 20 µM [inhibitor, single point]",
CCCN(CCC)Cc1cc(=O)oc2cc(OC)ccc12,"inconclusive: 14.1 µM [inhibitor, single point]",
CCCC(=O)Nc1nnc(-c2ccc3c(c2)OCCO3)o1,"inconclusive: 6.31 µM [inhibitor, full curve, poor fit]",
Cc1cc(C(=O)N/N=C/c2c3ccccc3cc3ccccc23)n[nH]1,"inconclusive: 11.2 µM [inhibitor, partial curve, poor fit]",
Cc1cc(C)cc(NC(=O)C2CCCN(c3nnc(-n4c(C)ccc4C)s3)C2)c1 (centres undefined),"inconclusive: 20 µM [inhibitor, partial curve, poor fit]",
Cn1c(Cc2cccs2)nnc1SCC(=O)Nc1ccc(F)cc1F,,inactive: 6.96%
COC(=O)c1ccc(NC(=O)C(c2ccccc2)N2Cc3ccccc3C2=O)cc1 (centres undefined),"inconclusive: 25.1 µM [inhibitor, single point]",
Cc1ccc(S(=O)(=O)N(C)C)cc1NC(=O)CSc1nc2ncc(Cl)cc2[nH]1,"inconclusive: 22.4 µM [inhibitor, single point]",
Cc1cccc(CCNC(=O)CCc2c(C)nc3c(-c4ccc(F)cc4)c(C)nn3c2C)c1,,inactive: -16.8%
Cc1ccc(-c2nnc3c(C(F)(F)F)nc4ccccc4n23)cc1,"inconclusive: 8.91 µM [inhibitor, partial curve, poor fit]",
O=C(COC(=O)C1CCN(S(=O)(=O)c2cccs2)CC1)Nc1ccc(F)cc1Cl,"inconclusive: 6.31 µM [inhibitor, single point]",
CCCCCC(=O)OC(CN1CCCCC1)CN1CCCC1=O (centres undefined),"inconclusive: 35.5 µM [inhibitor, single point]",
CC(C)(C)c1cc(C(=O)NNC(=O)Nc2cccc(Cl)c2)n(Cc2ccccc2)n1,"inconclusive: 35.5 µM [inhibitor, single point]",
CS(=O)(=O)Oc1ccc2c(c1)O/C(=C\c1cccnc1)C2=O,"inconclusive: 35.5 µM [inhibitor, single point]",
Cc1ccc(-c2onc(C)c2C)cc1S(=O)(=O)N1CCc2ccccc21,"inconclusive: 1.12 µM [inhibitor, full curve, poor fit]",
COc1cccc(NC(=O)OCCN2CCN(Cc3ccccc3)CCC2=O)c1,"inconclusive: 20 µM [inhibitor, single point]",

SMILES,Potency,"activity, negative = inhibition"
Cc1ccc(C(=O)NCc2cccs2)cc1S(=O)(=O)N1CCCCC1,"inconclusive: 7.94 µM [inhibitor, partial curve, poor fit]",
CN(C)S(=O)(=O)c1cccc(NC(=O)CN2C(=O)NC3(CCc4ccccc4C3)C2=O)c1 (centres undefined),,inactive: 5.39%
CCOC(=O)N1CCN(S(=O)(=O)c2ccc(C(=O)Nc3ccc4c(c3)C(=O)NC4=O)cc2)CC1,"inconclusive: 22.4 µM [inhibitor, single point]",
Cc1ccc(S(=O)(=O)C(CNC(=O)C(=O)NCCc2ccc(F)cc2)c2cccs2)cc1 (centres undefined),,inactive: -23%
COc1cc(NC(=O)CSc2ccc(-c3sc(C)nc3C)nn2)cc(OC)c1,"inconclusive: 35.5 µM [inhibitor, single point]",
BrC(=C\c1ccccc1)/C=N/Nc1nc(N2CCOCC2)nc(N2CCOCC2)n1,,inactive: 0.166%
COc1ccc(-c2ccc(CO)o2)cc1N,"inconclusive: 35.5 µM [inhibitor, single point]",
COCCNS(=O)(=O)c1ccc(OCC(=O)OC)c(Cl)c1,"inconclusive: 2.82 µM [inhibitor, partial curve, poor fit]",
COc1ccc(CN2CCN(C(=O)CC(C)C)CC2)cc1Br,,inactive: 4.88%
CC1(C)CC(NC(=O)c2ccncc2)CC(C)(C)N1O,,inactive: 6.92%
O=C(CSc1nc2ccccc2n1Cc1cccc(C(F)(F)F)c1)NCc1ccccc1,"inconclusive: 35.5 µM [inhibitor, single point]",
O=C(c1ccc(CSc2ccc(Cl)cc2)cc1)N1CCCC1,"inconclusive: 10 µM [inhibitor, partial curve, poor fit]",
CC(NC(=O)c1ccco1)c1nc(-c2ccccc2Cl)no1 (centres undefined),,inactive: -17.6%
O=C(O)c1ccc(CSc2nc3cccnc3n2Cc2cccc(F)c2)cc1,"inconclusive: 15.8 µM [inhibitor, single point]",
CCCOc1ccc(C(=O)Nc2cccc(NC(=O)c3ccc(Cl)cc3Cl)c2)cc1,"inconclusive: 22.4 µM [inhibitor, single point]",
CCCN(CCC)C(=O)CSc1nc2ccccc2c(=O)n1C1CCCC1,"inconclusive: 3.98 µM [inhibitor, full curve]",
COc1cc2c(cc1OC)CN(c1ccc([N+](=O)[O-])cc1Cl)CC2,"inconclusive: 22.4 µM [inhibitor, single point]",
COc1cc2c(cc1NC(=O)c1cc(-c3ccncc3)nc3ccc(C)cc13)oc1ccccc12,"inconclusive: 35.5 µM [inhibitor, partial curve, poor fit]",
Cc1nc2nc(SCC(=O)NCCc3ccc(Cl)cc3)nn2c(C)c1Cc1c(F)cccc1Cl,"inconclusive: 0.112 µM [inhibitor, full curve, poor fit]",
COC(=O)c1ccc(S(=O)(=O)NCCSc2nnc3c4ccccc4n(C)c3n2)cc1,,inactive: -13%
COc1cccc(Nc2nc(-c3ccc(O)cc3)cs2)c1,"inconclusive: 8.91 µM [inhibitor, partial curve, poor fit]",
Cc1nn(CCC(=O)Nc2cccc(C#N)c2)c(C)c1S(=O)(=O)N1CCC(C)CC1,"inconclusive: 10 µM [inhibitor, partial curve]",

SMILES,Potency,"activity, negative = inhibition"
CC1(C(=O)Nc2ccc3c(c2)OCO3)CCN1C(=O)C1(c2ccc(Cl)cc2)CC1 (centres undefined),"inconclusive: 5.62 µM [inhibitor, single point]",
CCCCCCCC(=O)C(C)C(=O)N(C)[C@H](Cc1ccc(OC)cc1)C(=O)N(C)[C@H](C(N)=O)C(C)C (some centres undefined),"inconclusive: 11.2 µM [inhibitor, partial curve]",
CCOC(=O)C1=CCN(S(=O)(=O)c2ccc(C)cc2)[C@H]1c1ccccc1Cl,"inconclusive: 15.8 µM [inhibitor, single point]",
COc1ccc(-n2cnc3cc(C(=O)NCCC4=CCCCC4)ccc32)cc1,"inconclusive: 25.1 µM [inhibitor, single point]",
COCCN(CCOC)S(=O)(=O)c1ccc(C(=O)Nc2nc(-c3ccccc3)c(C(=O)c3ccccc3)s2)cc1,"inconclusive: 2.24 µM [inhibitor, full curve, poor fit]",
CCCNC(=O)c1cc(C2CCCN(C(=O)c3cc(C(C)(C)C)nn3C)C2)on1 (centres undefined),,inactive: -0.301%
COC(=O)c1ccccc1NC(=O)Cc1nc(-c2ccc(OC)cc2)no1,"inconclusive: 17.8 µM [inhibitor, single point]",
COc1ccc(N(C(=O)/C=C/c2ccccc2)C2=CC3CCC(C2)N3C)cc1 (centres undefined),,inactive: 8.6%
Nc1ncnc2c1ncn2[C@@H]1O[C@H](CNC(=O)[C@@H]2CCN2)[C@@H](O)[C@H]1O,,inactive: 13.6%
CCN1CCN(c2nc(N)c([N+](=O)[O-])c(Nc3cccc(C)c3)n2)CC1,"inconclusive: 5.62 µM [inhibitor, single point]",
C=CCOc1ccc(C2=NOC(C(=O)Nc3ccc4c(c3)OCCO4)C2)cc1OC (centres undefined),,inactive: -25.2%
CC(C)C(C)NC(=O)COc1ccc(OCc2ccccc2)cc1 (centres undefined),"inconclusive: 15.8 µM [inhibitor, single point]",
CCOC1(c2ccccc2)CC1C(=O)N/N=C/c1cccc([N+](=O)[O-])c1 (centres undefined),"inconclusive: 2.51 µM [inhibitor, partial curve, poor fit]",
COc1ccc(NC(=O)C2CCCN(S(=O)(=O)c3cccc4nonc34)C2)c(OC)c1 (centres undefined),"inconclusive: 6.31 µM [inhibitor, single point]",
O=C(Nc1ccc(N2CCCCC2)cc1)c1ccc2c(c1)OCCO2,,inactive: -0.435%
Cc1ccc(S(=O)(=O)c2c(C)nn(C(C)(C)C)c2OC(=O)c2ccc(Br)o2)cc1,"inconclusive: 22.4 µM [inhibitor, single point]",
O=C(Nc1nc(-c2ccc(F)cc2)cs1)c1cccnc1,,inactive: 10.6%
CC(C)C(=O)N1CCN(c2ccc([N+](=O)[O-])c(NC(C)c3ccccc3)c2)CC1 (centres undefined),"inconclusive: 1.12 µM [inhibitor, full curve, poor fit]",
COc1ccc(CCNC(=O)c2ccn[nH]2)cc1OC,"inconclusive: 12.6 µM [inhibitor, single point]",
Cc1cc(N2CCOCC2)nc2ccc(NC(=S)NCc3ccc4c(c3)OCO4)cc12,"inconclusive: 35.5 µM [inhibitor, single point]",
